{"source": "the supplement of paper PMC11417369", "note": "± gives the standard deviation of the averaged measurements. The list shows a part of the results."}
{"test_system": "PfAP2-LT AP2 domain (GST-tagged)", "assay": "gcPBM binding intensity (ln(normalized median fluorescence intensity)); higher = stronger DNA binding", "method_in_brief": "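Each value is the highest Masliner-normalised natural-log median intensity across replicate spots of either orientation of a probe. The probes were primer-extended double-stranded 36-bp intergenic genomic sequences on an Agilent 4 × 180k array, alongside negative controls, exposed for 1 h to GST-tagged P. falciparum DNA-binding domains expressed in E. coli. Bound protein was picked up with Alexa488 anti-GST antibody and scanned at 488 nm.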"}
{"sequence": "ACTACATAATACTATTCACACATTTTTTTTTTTTTT [CACACA_site5794]", "gcPBM binding intensity (ln)": "8.81 ± 0.49"}
{"sequence": "AAAAAAAAAAAAAAAACATGCACAAATTATAAGTGA [TGCATGCA_site378]", "gcPBM binding intensity (ln)": "8.7 ± 0.49"}
{"sequence": "AAAAAAAAAAAAAACACACAGAACAATATATAAATA [CACACA_site982]", "gcPBM binding intensity (ln)": "8.98 ± 0.41"}
{"sequence": "AAAAAAAAATACAAAATAGCAATAAATACACAAACG [GTGCAC_negctrl_site707]", "gcPBM binding intensity (ln)": "9.2 ± 0.42"}
{"sequence": "ATATAAATTATTTACACACAAACATTTATACTTTTA [CACACA_site3448]", "gcPBM binding intensity (ln)": "8.84 ± 0.4"}
{"sequence": "TTTTGTTACGGCAAGGAAGTTAAGCATAAATGAATG [GTGCAC_negctrl_site173]", "gcPBM binding intensity (ln)": "8.6 ± 0.46"}
{"sequence": "CAGGCGTGAAATATACGTACACACATTATTTATATT [XGTACX_site5337]", "gcPBM binding intensity (ln)": "9.1 ± 0.45"}
{"sequence": "ATATAAGTGTATCTAACACACAAATATGTAAAAATG [CACACA_site7006]", "gcPBM binding intensity (ln)": "9.26 ± 0.54"}
{"sequence": "ATATATCTACTGTGTTGTACTGTTAATATTTGAATA [XGTACX_site1931]", "gcPBM binding intensity (ln)": "8.91 ± 0.38"}
{"sequence": "TATATACACATATATACACACACATATATATATATA [CACACA_site9127]", "gcPBM binding intensity (ln)": "9.73 ± 0.12"}
{"sequence": "AAGAAAAAAAATATATATGTATATATTATTTTAACA [TGCATGCA_negctrl_site534]", "gcPBM binding intensity (ln)": "8.44 ± 0.44"}
{"sequence": "ATATTTTTTGCTATTACACACAAGGGATTATTATTT [CACACA_site7776]", "gcPBM binding intensity (ln)": "9.16 ± 0.47"}
{"sequence": "TAATAATAGTCTAATACATGCATCGATAACGGAACT [TGCATGCA_site98]", "gcPBM binding intensity (ln)": "8.82 ± 0.32"}
{"sequence": "ATGTTAATAACTTGTGGTACTGTTATAATTTAGTAA [XGTACX_site2114]", "gcPBM binding intensity (ln)": "8.68 ± 0.39"}
{"sequence": "TTTTTATTTTTAAAGGCACACACATTTTTATTTTTA [CACACA_site8624]", "gcPBM binding intensity (ln)": "8.95 ± 0.48"}
{"sequence": "AATAAATAAATAATATAATGAAATTATAAAATGTGG [TGCATGCA_negctrl_site385]", "gcPBM binding intensity (ln)": "8.76 ± 0.61"}
{"sequence": "TATTTGTGCCAAAAATGAAAAAGTTTGTATAAAACC [CACACA_negctrl_site1406]", "gcPBM binding intensity (ln)": "8.55 ± 0.47"}
{"sequence": "AAATGAAATTTGTATACACACAAATATATTTATATA [CACACA_site6525]", "gcPBM binding intensity (ln)": "8.79 ± 0.42"}
{"sequence": "TATATATATATATACACACACACCCTAAAAATATAT [CACACA_site1611]", "gcPBM binding intensity (ln)": "9.765 ± 0.021"}
{"sequence": "AAAATTACTATATGAACACACATGATTAGATATATG [CACACA_site3083]", "gcPBM binding intensity (ln)": "8.95 ± 0.41"}
{"sequence": "TGAAAGAATTAATTTTGTACATATAAAAATTTTATT [XGTACX_site8500]", "gcPBM binding intensity (ln)": "8.34 ± 0.46"}
{"sequence": "AAAAAAAAAAAATATACACACACATATATATATATA [CACACA_site9123]", "gcPBM binding intensity (ln)": "9.84 ± 0.3"}
{"sequence": "AACAACAATTTCGTCATACACACATTCAGAATATAT [CACACA_site2371]", "gcPBM binding intensity (ln)": "9.1 ± 0.35"}
{"sequence": "AATGATCATAAATACACACACACAAAAAAAAAAAAA [CACACA_site6072]", "gcPBM binding intensity (ln)": "9.7 ± 0.47"}
{"sequence": "TATTAAAAAAATGTATGTACATATATAAATTTTTTT [XGTACX_site1094]", "gcPBM binding intensity (ln)": "8.4 ± 0.48"}
{"sequence": "TTTCTCCCATTTTTTAGTACACAAAATATATATGTA [XGTACX_site7218]", "gcPBM binding intensity (ln)": "8.7 ± 0.41"}
{"sequence": "GATGGATTTATTTAAAGTACATATTTAAAAAACTGT [XGTACX_site7567]", "gcPBM binding intensity (ln)": "8.51 ± 0.49"}
{"sequence": "AAAGTAAAAGAAAGCACACACACATGTATATATGTA [CACACA_site3857]", "gcPBM binding intensity (ln)": "9.57 ± 0.34"}
{"sequence": "TTTATACTATAATTATGTACTTATAAAAGGAATAAA [XGTACX_site8027]", "gcPBM binding intensity (ln)": "8.26 ± 0.42"}
{"sequence": "ATGTAAATACATATATGTACACAAATATATATATAT [XGTACX_site3537]", "gcPBM binding intensity (ln)": "9.33 ± 0.33"}
{"sequence": "ATAAACACATCTATATGTACATATATATATATATAC [XGTACX_site347]", "gcPBM binding intensity (ln)": "9.28 ± 0.26"}
{"sequence": "TATATAAATATACATTGTACTCAACATTTTCATTAA [XGTACX_site3690]", "gcPBM binding intensity (ln)": "8.58 ± 0.37"}
{"sequence": "TATATTAAATAAAAAGTGCATGTCTCATAAGATGGA [GTGCAC_site9520]", "gcPBM binding intensity (ln)": "8.64 ± 0.46"}
{"sequence": "ATAGGGAATTTATGCACACAGTTAAGGGGGAAAATT [CACACA_site5183]", "gcPBM binding intensity (ln)": "9.34 ± 0.19"}
{"sequence": "ATAAAATGTTAAGGGTGTACTTTACACATCTCCTAT [XGTACX_site4699]", "gcPBM binding intensity (ln)": "8.83 ± 0.41"}
{"sequence": "TATAAATAAAGCAGTACACACATTTATTTTAGATAC [CACACA_site7566]", "gcPBM binding intensity (ln)": "8.93 ± 0.42"}
{"sequence": "TATAAGATTATACAAAGTACATATAAATAATATATT [XGTACX_site1917]", "gcPBM binding intensity (ln)": "8.61 ± 0.47"}
{"sequence": "ATATATATATAAATATGTACATATATATATTATATA [XGTACX_site120]", "gcPBM binding intensity (ln)": "8.77 ± 0.36"}
{"sequence": "TCCTCTTTTATTTTTACACACGCGTAAACATATATA [CACACA_site667]", "gcPBM binding intensity (ln)": "9.26 ± 0.42"}
{"sequence": "TTAAAAAAAGATTATACACACACATATATAAACATA [CACACA_site8136]", "gcPBM binding intensity (ln)": "9.28 ± 0.28"}
{"sequence": "ATGGGTTAAAAATGCACACAAAAAAATATACAGATA [CACACA_site4321]", "gcPBM binding intensity (ln)": "9.17 ± 0.4"}
{"sequence": "TGAAATAAAAAATATAGTACTCGTTCGTAACCAAAA [XGTACX_site413]", "gcPBM binding intensity (ln)": "8.73 ± 0.43"}
{"sequence": "TGTATTAATAAAAATACACACATCATATTATAGAAA [CACACA_site7629]", "gcPBM binding intensity (ln)": "8.86 ± 0.33"}
{"sequence": "ATATATAAGGATGTCACACATAAATATTAACACTAA [CACACA_site5101]", "gcPBM binding intensity (ln)": "8.8 ± 0.47"}
